# Results published in PubChem BioAssay AID1347417 (National Center for Advancing Translational Sciences (NCATS), 2020).
# The campaign covered roughly 120,000 compounds. About 5,300 (4.4%) were called active. The inconclusive results got no clear call from the source; some entries with a clear call stand among them for comparison. The call rests on the fitted dose curve; in most records, active means well fitted inhibition curve with a large enough effect; inconclusive means small, poorly fitted or top-dose-only effect; inactive means no such curve, though single readings can be large or run the other way. Potencies of inconclusive entries are doubtful fits and often do not repeat.
# Assay: qHTS Primary assay for Inhibitors of Plasmodium falciparum Dd2 growth in vitro; further: nearly all actives have a fitted effect of over 65% in size;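 on activity, negative = inhibition: plate controls were DMSO vehicle for no effect and reference drug for full effect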
# Conditions: P. falciparum Dd2 growth, SYBR Green, 72 h; activity, negative = inhibition: at 28.9 µM (top of the series) unless noted; series mostly up to 28.9 µM
# Method in brief: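 Infected erythrocytes (Dd2, 0.3% parasitemia, 2.5% hematocrit final) are added to compound in RPMI-1640/Albumax II medium, grown 72 h at 37C in low oxygen, then lysed with saponin/Triton-X containing SYBR Green and read by fluorescence.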
# Potency means the concentration at half of the fitted maximal effect; tags describe the fitted curve by direction and shape.
SMILES,Potency,outcome,"activity, negative = inhibition"
CC(C)c1cccc(OCCn2c(-c3ccc(Cl)cc3)nc3ccccc3c2=O)c1,"inconclusive: 2.82 µM [inhibitor, partial curve, poor fit]",–,–
CC(Oc1ccccc1)C(=O)N1CCc2c(c(-c3nncn3C(C)C)nn2C)C1 (configuration not stated),"inconclusive: 3.16 µM [inhibitor, partial curve, poor fit]",–,–
CCCn1c(C)cnc1CC1CCN(S(=O)(=O)c2ccccc2)C1 (configuration not stated),"inconclusive: 1.58 µM [inhibitor, partial curve, poor fit]",–,–
Cc1ccc(OCC(=O)N(Cc2ccco2)Cc2ccc(C)o2)cc1,"inconclusive: 17.8 µM [inhibitor, single point]",–,–
Cc1cc2c(c(=O)n(-c3ccccc3)c(=O)n2CC(=O)Nc2ccccc2Cl)n1C,"inconclusive: 5.01 µM [inhibitor, single point]",–,–
Cc1ccc(C)c(NC(=O)c2cc(S(=O)(=O)N3CCCCCC3)ccc2F)c1,"inconclusive: 12.6 µM [inhibitor, single point]",–,–
N#Cc1cccc(-c2cn3c(n2)N(C(=O)C2CCC2)CCC3)c1,"inconclusive: 2.24 µM [inhibitor, single point]",–,–
COc1cccc(N2CC(C(=O)NCCCc3ccccc3)NC2=O)c1 (configuration not stated),–,inactive,–
CC1Oc2ccc(NC(=O)c3cccc(F)c3)cc2CN(Cc2ccc3c(c2)OCO3)C1=O (configuration not stated),–,inactive,–
CC(C)c1ccc(OCc2nc3c(n2Cc2ccccc2)C(=O)N(CC2CC2)CCN3)cc1,"inconclusive: 8.91 µM [inhibitor, partial curve]",–,–
COc1cccc(-c2cc3c(=O)n(CC(O)c4ccc(C(C)C)cc4)ccn3n2)c1 (configuration not stated),"inconclusive: 3.98 µM [inhibitor, partial curve, poor fit]",–,–
CN1CC2(CCCN(C(=O)c3conc3-c3ccccc3)CC2)OC1=O (configuration not stated),–,–,inactive: -0.844%
COc1ccnc(N2CC[C@H](c3nnc(-c4ccc(C)cc4)o3)C2)n1,"inconclusive: 12.6 µM [inhibitor, single point]",–,–
O=C(NCc1cccc2[nH]ccc12)C1CCCN(C2CCN(C(=O)C3CC3)CC2)C1 (configuration not stated),–,–,inactive: -6.1%
c1ccc(-c2nnc3ccc(NC4CCC4)nn23)nc1,"inconclusive: 25.1 µM [inhibitor, single point]",–,–
O=C(NC1CCCCC1)C1CCc2ncc(-c3ccsc3)n2C1 (configuration not stated),"inconclusive: 20 µM [inhibitor, single point]",–,–
C[C@@H]1CN(C(=O)c2cnc3c(O)cccn3c2=O)CC[C@@]1(O)C1CCC1,"inconclusive: 11.2 µM [inhibitor, single point]",–,–
CCOc1ccc(-c2nc(C3CC(=O)N(c4ccc(Cl)cc4)C3)no2)cc1OCC (configuration not stated),–,–,inactive: 1.73%
Cc1ccccc1-c1onc(C)c1C(=O)NCc1cccc(F)c1F,–,inactive,–
COc1ccccc1N1CCN(CCCNC(=O)c2cnn(-c3ccccc3)c2C2CCN(C(=O)OC(C)(C)C)CC2)CC1,"inconclusive: 1.78 µM [inhibitor, single point]",–,–
COCCNC(=O)[C@H]1C[C@H](Oc2ccccc2)CN1C(=O)c1cccs1,–,–,inactive: 9.53%

SMILES,Potency,outcome,"activity, negative = inhibition"
O=C(c1ccc(F)c(Cl)c1)N1CCC[C@H]1c1nc(-c2ccccc2)no1,"inconclusive: 0.501 µM [inhibitor, full curve]",–,–
Cc1oc2c(c1C(=O)NC(C)c1ccco1)CN(Cc1ccc(F)cc1)CC2 (configuration not stated),"inconclusive: 8.91 µM [inhibitor, partial curve, poor fit]",–,–
COc1ccc(CN2CCN(c3ncnc4sc5c(c34)CC(C)CC5)CC2)cc1F (configuration not stated),–,inactive,–
Cc1nn2c(c1-c1cccnc1N1CCOCC1)N(CC1CCOCC1)CCC2,"inconclusive: 25.1 µM [inhibitor, single point]",–,–
Cc1ccccc1C(=O)Nc1nc(-c2nnn(-c3ccc(C(C)C)cc3)c2C)ns1,"inconclusive: 17.8 µM [inhibitor, single point]",–,–
COc1ccc(C2(C(=O)N3CCCC(c4nc(CCOCC5CC5)no4)C3)CC2)cc1 (configuration not stated),"inconclusive: 10 µM [inhibitor, single point]",–,–
O=C1Nc2ccccc2CC12CN(Cc1ccc(F)c(F)c1F)C2,–,–,inconclusive: -107% [inhibitor]
CC1=C[C@@H](CNCc2cccnc2)[C@H](C(C)C)C[C@H]1Cc1nnc(-c2ccncc2)o1,"inconclusive: 2.24 µM [inhibitor, partial curve, poor fit]",–,–
CCCc1noc(-c2cccn3c(CNC(=O)Cc4ccc(Cl)cc4)nnc23)n1,–,–,inactive: -0.72%
C[C@@H](c1ccccc1)N1C(=O)[C@@H]2CN(C(=O)CSc3ccncc3)CCN2C1=O,–,–,inactive: -20.3% [at 44.1 µM]
CCCCCn1c(-c2ccc(OC)c(OC)c2)nc2ccccc21,"inconclusive: 11.2 µM [inhibitor, single point]",–,–
COc1ccc(OC)c(NC(=O)Cn2c(-c3ccc(Cl)cc3)nc(C)c(CCO)c2=O)c1,"inconclusive: 0.0631 µM [inhibitor, single point]",–,–
CSc1cccc(NC(=O)Cn2c(C)cc3nc4n(c(=O)c32)CCCCC4)c1,"inconclusive: 10 µM [inhibitor, single point]",–,–
CC(C)c1noc([C@H]2C[C@@H]3C(=O)NCCCCCCN(C(=O)Cc4cccnc4)[C@@H]3C2)n1,"inconclusive: 15.8 µM [inhibitor, partial curve, poor fit]",–,–
CC(=O)N1CCC(N2CCOC[C@H]2c2ncc(-c3ccncc3)[nH]2)CC1,–,inactive [at 44.1 µM],–
Cc1ccc(/C=C/c2onc(C)c2S(=O)(=O)N2CCC(C(=O)NCC(C)c3ccccc3)CC2)cc1 (configuration not stated),"inconclusive: 7.94 µM [inhibitor, single point]",–,–
COc1ccc(C(=O)N2CCC(Cc3nc(-c4ccccc4)no3)CC2)cc1OC,"inconclusive: 12.6 µM [inhibitor, single point]",–,–
CC(C)CCN1CCn2c(nn(-c3ccc([N+](=O)[O-])cc3)c2=O)C1,"inconclusive: 1.41 µM [inhibitor, full curve]",–,–
CCn1cc(S(=O)(=O)c2cccc(Cl)c2)c(=O)c2cc(F)c(N3CCN(c4ccccc4)CC3)cc21,"inconclusive: 17.8 µM [inhibitor, single point]",–,–
CC(C)N1C(=O)C(CC(=O)NCCc2c[nH]c3ccccc23)=C2CCCCC21 (configuration not stated),"inconclusive: 17.8 µM [inhibitor, single point]",–,–
Cc1cc(F)ccc1OC1CN(Cc2ccc(F)cc2)C1,"inconclusive: 31.6 µM [inhibitor, single point]",–,–

SMILES,Potency,outcome,"activity, negative = inhibition"
O=C(c1cccc(OC2CN(Cc3nccs3)C2)c1)N1CCOCC1,active: 2.51 µM,–,–
CNC(=O)c1cccc(-c2cnc3[nH]cc(CC(=O)NCC(C)C)c3c2)c1,"inconclusive: 10 µM [inhibitor, single point]",–,–
COc1ccc(CN2Cc3[nH]cnc3C[C@H]2c2nc(-c3cnccn3)no2)cc1,"inconclusive: 31.6 µM [inhibitor, single point]",–,–
Cc1cccc(-c2nc(SCCCOc3ccc(Cl)c(C)c3)n3[nH]c(=O)cc3n2)c1,–,inactive,–
Cc1ccc(C2(O)CCN(C(=O)C(=O)c3cccnc3)CC2)nc1,–,–,inactive: -6.65%
CCN1CCN(c2ncc3c(n2)CCN(Cc2ccc(OC(C)C)cc2)C3)CC1,"inconclusive: 11.2 µM [inhibitor, single point]",–,–
CCOC(=O)N1CCc2c(sc(NCc3cc(OC)c(OC)cc3OC)c2C(=O)Nc2ccc(OCC)cc2)C1,"inconclusive: 11.2 µM [inhibitor, single point]",–,–
Cc1ccc(-c2cn3c(n2)sc2cc(C(=O)NC(C)C45CC6CC(CC(C6)C4)C5)ccc23)cc1 (configuration not stated),"inconclusive: 2.24 µM [inhibitor, single point]",–,–
CC(C)C(=O)N1CCC(COc2ccc3c(cnn3CC[S+](C)(=O)[O-])c2)CC1,"inconclusive: 14.1 µM [inhibitor, single point]",–,–
c1ccc(O[C@H]2COCCN(CC3CC3)C2)cc1,"inconclusive: 12.6 µM [inhibitor, partial curve, poor fit]",–,–
COc1ccc(OCC2(C)COc3ccc(C(=O)N(C)c4ccccc4)cc3N2)cc1 (configuration not stated),"inconclusive: 10 µM [inhibitor, partial curve, poor fit]",–,–
COc1ccc(-c2ccc3ncc(Nc4cc(F)cc(N5CCOCC5)c4)n3n2)cn1,"inconclusive: 2.24 µM [inhibitor, partial curve, poor fit]",–,–
COc1ccccc1Nc1cnc2ccc(-c3cccc(CO)c3)nn12,"inconclusive: 1.78 µM [inhibitor, partial curve, poor fit]",–,–
COc1ccc(C2(CNC(=O)C(=O)Nc3ccc(F)cc3)CCCC2)cc1OC,"inconclusive: 17.8 µM [inhibitor, single point]",–,–
CCc1ccccc1NC(=O)C(=O)NCC(c1cccnc1)N1CCN(c2ccccc2F)CC1 (configuration not stated),"inconclusive: 20 µM [inhibitor, single point]",–,–
Cc1noc(CN(C)C(=O)c2ccc3oc(Cc4ccc(Cl)cc4)nc3c2)n1,"inconclusive: 11.2 µM [inhibitor, single point]",–,–
Cc1c(C(c2ccc(Cl)cc2Cl)c2c(O)c3ccccc3oc2=O)c(=O)n(-c2ccccc2)n1C (configuration not stated),"inconclusive: 8.91 µM [inhibitor, partial curve, poor fit]",–,–
Cn1ccnc1C(NC(=O)c1cn(CCN)nn1)C1CC1 (configuration not stated),–,–,inactive: -4.9%
CCSC1=NC2(CCN(C(=O)NC3CCCCC3)CC2)N=C1c1ccc(Cl)cc1,"inconclusive: 3.16 µM [inhibitor, single point]",–,–
COCC(=O)N[C@H]1C[C@@H](Cc2cc(CN(C)C)on2)C1(C)C,"inconclusive: 12.6 µM [inhibitor, single point]",–,–
